Hit rate of the full screen: of about 150,000 compounds, about 540 (0.36%) showed an effect of 50% or more. The list shows a part of the results.
These molecules were tested on Plasmodium falciparum (assay: Primary screen in NF54 nanoGlo assay, in single point, at 2uM, 72h; a lower Z score goes with more inhibition). Details: timepoint 72 hour.
Type: functional, Erythrocyte

| Compound | % Inhibition [%] | Z score |
| --- | --- | --- |
| Cc1ccc(CNC(=O)[C@H]2CCCN(S(=O)(=O)c3ccc4[nH]c(=O)oc4c3)C2)o1 | -21 | 2.14 |
| O=c1c2ccccc2nc(-c2ccoc2)n1-c1ccccc1 | -6 | 0.72 |
| CN1CC[C@]2(CCN(Cc3cnc(C(C)(C)C)nc3)C2)C1 | -1 | 0.09 |
| C[C@@H](CCCC(C)(C)O)NC1CCCCCCC1 | -14 | 1.93 |
| CCn1c(=O)oc2cc(-c3noc(-c4n[nH]c5c4CCCC5)n3)ccc21 | -11 | 1.03 |
| CN1C(=O)N[C@@H]2CN(Cc3cccc4nccn34)CC[C@@H]21 | -11 | 2.1 |
| O=C1C[C@@]2(CCN(CCCc3cccnc3)C2)Oc2ccccc21 | 6 | -0.76 |
| Cn1ncc2c(N3CC4CC3CN4Cc3ccccc3)ncnc21 (stereo not given) | -12 | 1.65 |
| Cn1nccc1C1=CC2CCC(C1)N2CCN1CCCS1(=O)=O (stereo not given) | -6 | 0.75 |
| CNc1ncc(CN(C)c2nc(N(C)C)nc(C)c2C)cn1 | -10 | 1.34 |
| O=S(=O)(c1ccccc1Br)N1C2CCC1c1cncnc1C2 (stereo not given) | -12 | 1.49 |
| Clc1cccc2c(N3CC[C@]4(CCNC4)C3)ccnc12 | 23 | -3.12 |
| CCN(CC)C[C@H]1C[N@@]2CC[C@H]1C[C@@H]2CNS(=O)(=O)c1ccc(C)cc1 | -10 | 1.58 |
| CN1CC[C@]2(CCN(c3ccnc4ccsc34)C2)C1 | 98 | -10.65 |
| CCc1ccc(CN[C@@H](CC)Cn2ccnc2)nc1 | 5 | -0.99 |
| Cc1ccc(C2CN(C)CC2C(=O)c2ccc(F)cc2)cc1 (stereo not given) | -1 | 0.19 |
| CN1CCC2=C(C1)C(O)=NC1(CCCCC1)N2 | -3 | 0.31 |
| Cc1cc(Cl)cc2c(N3CC[C@@]4(O)CCNC[C@H]4C3)ccnc12 | 3 | -0.52 |
| CCc1nnc(CN2CCC(c3ccnc4ccccc34)CC2)o1 | -3 | 0.52 |
| CCOC[C@@H](O)CN(C1CCCCC1)C1CC1 | -6 | 0.89 |
| Cc1cccnc1C(=O)N1CC[C@@H]2CN(Cc3cccnc3)[C@@H]2C1 | -14 | 1.92 |
| O=C1NC(=O)C2(Cc3ccccc3N3CCN(c4ccccc4)CC32)C(=O)N1CCc1ccccc1 (stereo not given) | -4 | 0.54 |
| CCCN1C(=O)NC(=O)C2(Cc3cc4cc(C)ccc4nc3N3CCCCC32)C1=O (stereo not given) | -10 | 1.31 |
| COc1ccc(CN2C(=O)NC(=O)C(CCc3ccccn3)(CCc3ccccn3)C2=O)cc1 | 2 | -0.33 |
| Fc1ccc(/C=C/CN2CC[C@@H]3CNC[C@@H]32)cc1 | -13 | 2.46 |
| Cc1cccc(CC(=O)N2CCC[C@](c3nnnn3C3CCCC3)(N(C)C)C2)c1 | -12 | 1.63 |
| O=C(c1cn(C[C@H](O)c2ccccc2F)nn1)N1CCC2(CC1)OCCO2 | -15 | 2.84 |
| Cc1ncn(C[C@H](C)NC2CCCCC2)c1C | -12 | 1.59 |

| Compound | % Inhibition [%] | Z score |
| --- | --- | --- |
| CCc1cc(CN[C@@H](C)Cc2ccc(F)cc2)on1 | -5 | 0.53 |
| CC(C)(C)OC(=O)CN1CCC2(CCCCC2)C1 | -1 | 0.09 |
| COCc1nn(Cc2ccc(C#N)cc2Br)c(=O)o1 | -14 | 1.2 |
| CCc1ccc(CC)c(NC(=O)CC2CC3CCC(C2)N3)c1 (stereo not given) | -33 | 3.85 |
| CC[C@@H](Cn1ccnc1)NCc1ccc(Cl)o1 | -14 | 1.26 |
| Cn1cccc1C(=O)C(Cl)(Cl)Cl | 26 | -3.09 |
| C[C@H](NC(=O)CN1CCCC1=O)C1=CCCCC1 | -5 | 0.97 |
| CC(C)c1ncc(C(=O)N[C@H]2CN3CCC2CC3)cn1 | 2 | -0.19 |
| Cc1cc(C)nc(NC(=O)C2C(C)(C)C2(C)C)n1 | -12 | 1.45 |
| Cc1ccccc1N(C(=O)c1nnn(C(C)(C)C)n1)c1nc2ccccc2s1 | -3 | 0.61 |
| O=C(CCC1CC1)N1CCC(c2c[nH]cn2)CC1 | 19 | -2.48 |
| O=C(c1ccncc1)N1C[C@@H]2C[C@H](C1)c1ccc(-c3cccnc3)c(=O)n1C2 | 5 | -0.67 |
| CCCc1cnc(C)nc1N1CCC2(CC1)CN[C@H](C(=O)O)C2 | -6 | 0.74 |
| Fc1cc2c(s1)C1(CCNCC1)OCC2 | -2 | 0.2 |
| O=C(CN1C[C@H](C(=O)O)[C@@H](c2ccc(F)cc2)C1)NCc1cccs1 | -7 | 1.39 |
| CCCn1ncc(C(=O)N[C@]2(C(=O)O)CCCc3ccccc32)c1C | -3 | 0.52 |
| Cc1n[nH]c(C)c1CNCCc1ccc2c(c1)OCCO2 | -1 | 0.23 |
| O=C(CN1CCN(C(=O)Nc2ccccc2)CC1=O)N1CCC2(CC1)OCCO2 | -7 | 1.4 |
| N#Cc1c(CN2CCC[C@]3(CC=CCC3)C2)cn2ccccc12 | -9 | 0.73 |
| O=C1NCCN2CCN(C(=O)Cc3ccc(Cl)cc3)CC[C@@H]12 | -4 | 0.74 |
| O=c1ccc(-c2ccccc2F)c2n1C[C@H]1C[C@@H]2CN(Cc2ccc(F)cc2)C1 | 31 | -3.46 |
| COc1cccc(CC(=O)N2CC(N3CC(F)(F)C[C@H]3CO)C2)c1 | -6 | 0.75 |
| CCCn1c(=O)oc2cc(NS(=O)(=O)c3ccc(C4CCCCC4)cc3)ccc21 | -11 | 1.41 |
| CCN(CC)CCN(C(=O)Cc1ccc2c(c1)OCO2)c1nc2c(C)c(C)ccc2s1 | -3 | 0.29 |
| O=C(O)[C@@]12COc3ccccc3[C@@H]1CN(Cc1cc(-c3ccccc3)no1)C2 | 8 | -1.36 |
| O=C(c1cccc(Cl)c1)[C@H]1CCCN(Cc2cccc3c2OCO3)C1 | -14 | 2.05 |
| O=C(c1ccc2oc(=O)[nH]c2c1)N1CCCC[C@@]12CCOC2 | -11 | 1.13 |
